Source: the supplement of paper PMC3334620
The full ranking holds about 33,000 sequences; the median of “E-score (-0.5 to 0.5)” is about -0.036, and the highest 2% start at about 0.37. The list shows a part of the results.

Biological target: T1, Yer064c (UniProt P40041)
T1 sequence: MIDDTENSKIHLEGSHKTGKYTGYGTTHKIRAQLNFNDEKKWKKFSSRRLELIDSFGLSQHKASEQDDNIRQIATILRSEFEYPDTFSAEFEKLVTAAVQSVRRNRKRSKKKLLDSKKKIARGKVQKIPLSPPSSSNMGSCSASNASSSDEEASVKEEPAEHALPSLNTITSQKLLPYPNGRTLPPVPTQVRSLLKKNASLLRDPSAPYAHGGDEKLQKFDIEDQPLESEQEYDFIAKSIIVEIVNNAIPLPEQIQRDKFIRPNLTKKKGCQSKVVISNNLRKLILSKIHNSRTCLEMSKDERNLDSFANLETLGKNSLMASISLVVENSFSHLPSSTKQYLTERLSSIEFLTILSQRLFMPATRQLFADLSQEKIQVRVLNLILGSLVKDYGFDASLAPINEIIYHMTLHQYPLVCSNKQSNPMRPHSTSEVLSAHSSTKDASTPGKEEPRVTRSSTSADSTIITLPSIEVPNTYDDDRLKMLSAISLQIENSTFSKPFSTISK
Assay: PBM E-score (8-mer binding enrichment) (E-score (-0.5 to 0.5)); higher = stronger / more preferred TF binding; most listed sequences are background and not binding sites
Details: protein concentration: 200 nM; construct: GST-full length
Method in brief: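 GST-tagged yeast TFs (full-length or DNA-binding domain) were made by PURExpress in vitro transcription/translation and applied at about 100-200 nM to universal all-10-mer Agilent arrays. The arrays were made double-stranded by primer extension, on fresh or once-stripped slides. Bound protein was detected with fluorescent anti-GST, and scans were normalised with masliner. Each ungapped eight-base word, pooled with its reverse complement, received an E-score (modified Wilcoxon-Mann-Whitney statistic) from the Universal PBM Analysis Suite.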

Sequence	PBM E-score
GCATGAGA	0.105
ACATTGAC	0.154
CCAACTCA	0.177
GTTCCTAA	0.117
CGAGCTCC	-0.122
AGGGGTGA	0.123
CAAACGGG	-0.164
CTCGCTGA	-0.0819
GCGTAAAC	-0.0466
GAACCGTA	-0.0645
CCGCAGCG	0.0625
ACTTTGGC	-0.0333
ACTATCGA	0.0488
ATAAAACG	-0.0532
ATCCGTGG	-0.291
GATATGGA	-0.00211
AGGTTCGG	-0.193
ATACATTA	0.123
AGGCGACA	-0.245
GCATTTCA	-0.128
AATCCGAA	0.0514
CAGGGAAA	-0.14

Sequence	PBM E-score
AAGCTGGC	-0.183
AGACCGGC	-0.0648
AATGTCCC	-0.152
GTACCCAA	-0.0895
CACATCTA	0.0403
CTGCCCTC	-0.185
CAGAACCC	-0.0369
AGTATACC	0.00468
GACTAGTC	0.408
GCGACCAC	-0.244
AGAACCGA	-8e-05
CAGGTGCG	-0.114
AGGTCCCC	-0.281
AGTCGTGC	0.371
ATGTTAGC	-0.0802
AGTTGCAC	-0.131
ACTCAATC	0.404
TAGTTAGA	0.271
CCATGAAC	0.0048
AGAACGGC	-0.172
TATGGACA	-0.125
ACGTTCGC	-0.131

Sequence	PBM E-score
ACTGGCTC	-0.0418
AATCAACG	0.308
CAAAAATA	0.17
GGTTGTAC	-0.0258
ATGAACGC	-0.015
GTCGAAAC	0.131
GCCACGCC	-0.295
ATAGCGTC	-0.148
CTACAGGC	-0.169
CACTTCGA	-0.0426
ACATGTTG	0.0417
GCGAGGGA	-0.189
ACATTTCC	-0.0856
CCAAATCC	-0.226
GATTCAGC	0.258
GCCTAGAA	-0.146
TCCTATAA	0.0495
CAATAATG	-0.0841
GAAGACAA	0.0132
TGAAGAAA	0.113
CCACATCC	-0.137
CAGACTGG	0.0136

Sequence	PBM E-score
CTATCCGA	-0.0351
AGATTGAT	0.0609
AAGACGTG	-0.0225
GCATAGTA	-0.208
CATGTTGA	0.209
GCCGTCTA	-0.264
ATCTGTCG	-0.177
CCATGCTA	-0.0909
ATCCCTTA	-0.0806
TCTTCAAA	0.09
GCCTACCA	-0.192
ATAATGAG	0.181
CACACCTG	-0.0672
AGGCACGG	-0.0585
CTCAGTTC	0.0697
AAACTGAT	0.0751
AAGTCTTA	0.213
GTAACAAC	-0.0396
GGCGTGCA	-0.23
GCTAACAA	-0.0268
